Measurements from the supplement of paper PMC6089552.
About 300 (9.4%) of roughly 3,200 compounds showed activity. The entries are a selection whose mix differs from that of the whole data set.

Test system: A673/TR/shEF
Test: cell viability (LOESS-normalised, relative to median of negative controls) (log2 ratio); higher = more viable cells (less compound effect), active = hit call of the paper (over 3 MAD below the median)
Settings: treatment time: 72 h
How it was run: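 Viability of A673/TR/shEF Ewing sarcoma cells was determined by CellTiter-Glo luminescence. The cells, at 1,500 per well in 384-well plates, were grown with or without doxycycline from 24 h before compound addition to switch on EWS-FLI1 shRNA knockdown, then exposed for three days to library compounds at two or more concentrations or to DMSO controls. Signals were LOESS-corrected plate by plate, normalised to the negative-control median and log2-transformed.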

[1] = 0.25 µM, library screen: screen1, EWS-FLI1 expression: high (no doxycycline)
[2] = 0.25 µM, library screen: screen1, EWS-FLI1 expression: low (doxycycline-induced shRNA knockdown)
[3] = 2.5 µM, library screen: screen1, EWS-FLI1 expression: high (no doxycycline)
[4] = 2.5 µM, library screen: screen1, EWS-FLI1 expression: low (doxycycline-induced shRNA knockdown)
[5] = 0.25 µM, library screen: screen2, EWS-FLI1 expression: high (no doxycycline)
[6] = 0.25 µM, library screen: screen2, EWS-FLI1 expression: low (doxycycline-induced shRNA knockdown)
[7] = 2.5 µM, library screen: screen2, EWS-FLI1 expression: high (no doxycycline)
[8] = 2.5 µM, library screen: screen2, EWS-FLI1 expression: low (doxycycline-induced shRNA knockdown)
[9] = 0.103 µM, library screen: screen3, EWS-FLI1 expression: high (no doxycycline)
[10] = 0.103 µM, library screen: screen3, EWS-FLI1 expression: low (doxycycline-induced shRNA knockdown)
[11] = 0.308 µM, library screen: screen3, EWS-FLI1 expression: high (no doxycycline)
[12] = 0.308 µM, library screen: screen3, EWS-FLI1 expression: low (doxycycline-induced shRNA knockdown)
[13] = 0.926 µM, library screen: screen3, EWS-FLI1 expression: high (no doxycycline)
[14] = 0.926 µM, library screen: screen3, EWS-FLI1 expression: low (doxycycline-induced shRNA knockdown)
[15] = 2.8 µM, library screen: screen3, EWS-FLI1 expression: high (no doxycycline)
[16] = 2.8 µM, library screen: screen3, EWS-FLI1 expression: low (doxycycline-induced shRNA knockdown)
[17] = 8.3 µM, library screen: screen3, EWS-FLI1 expression: high (no doxycycline)
[18] = 8.3 µM, library screen: screen3, EWS-FLI1 expression: low (doxycycline-induced shRNA knockdown)
[19] = 25 µM, library screen: screen3, EWS-FLI1 expression: high (no doxycycline)
[20] = 25 µM, library screen: screen3, EWS-FLI1 expression: low (doxycycline-induced shRNA knockdown)

Measured: cell viability (log2)

COc1cc(OC)c2c(c1)O[C@H](c1cc(OC)c(OC)c(OC)c1)[C@H](OC(=O)c1cc(OC)c(OC)c(OC)c1)C2
inactive: [1] 0.0414 | [2] 0.0159 | [3] 0.0705 | [4] -0.00627

N[C@@H](CCCC(=O)O)C(=O)O
inactive: [5] 0.162 | [6] 0.0926 | [7] 0.123 | [8] 0.112

O=c1cc(-c2ccccc2)oc2cc(O)c(O)c(O)c12
inactive: [1] 0.0871 | [2] 0.0339 | [3] 0.114 | [4] 0.0862

CC(=O)N[C@@H](CS)C(=O)O
inactive: [9] 0.0817 | [10] 0.0266 | [1] 0.0841 | [2] 0.112 | [5] -0.0515 | [6] 0.129 | [11] 0.066 | [12] -0.0031 | [13] 0.076 | [14] 0.0628 | [3] 0.237 | [4] 0.191 | [7] 0.12 | [8] 0.106 | [15] 0.0679 | [16] 0.0909 | [17] 0.0493 | [18] 0.0506 | [19] 0.11 | [20] 0.106

O=c1cc(-c2ccccc2)[nH]c2nc(Cl)ccc12
inactive: [5] 0.217 | [6] 0.163 | [7] 0.125 | [8] 0.151

COCCN1C(=O)/C(=C\c2ccc(-c3ccc(Br)cc3)o2)SC1=S
inactive: [1] 0.0753 | [2] 0.00476 | [3] 0.101 | [4] 0.0615

O=c1[nH]c(=O)c2nc3ccccc3nc2[nH]1
inactive: [5] 0.162 | [6] 0.112 | [7] 0.0736 | [8] 0.114

CC(=O)O[C@H]1C[C@@]2(C)[C@@H](C[C@@H](O)[C@H]3[C@@]4(C)CC[C@@H](O)[C@@H](C)[C@@H]4CC[C@@]32C)/C1=C(\CCC=C(C)C)C(=O)O
inactive: [1] 0.122 | [2] 0.0295 | [3] 0.146 | [4] 0.0181

COCc1nc2c([nH]1)c(=O)n(C)c(=O)n2CC(C)C
inactive: [5] 0.153 | [6] 0.158 | [7] 0.128 | [8] 0.164

NC(=O)OCC(COC(N)=O)c1ccccc1
inactive: [5] 0.14 | [6] 0.139 | [7] 0.151 | [8] 0.0729

C[C@H]1NC(=O)NC1=O
inactive: [1] 0.0544 | [2] 0.0103 | [3] 0.0268 | [4] 0.0311

Cc1ccnc(NS(=O)(=O)c2ccc(N)cc2)n1
inactive: [1] 0.0856 | [2] 0.0669 | [3] 0.0686 | [4] 0.126

OCCN(C(=S)Nc1ccc2nccnc2c1)c1ccccc1
inactive: [1] 0.0686 | [2] 0.0667 | [3] 0.0818 | [4] 0.102

Nc1ccc(S(=O)(=O)Nc2cnc3ccccc3n2)cc1
inactive: [1] 0.0806 | [2] 0.0245 | [3] 0.121 | [4] 0.0149

NCCCC(O)(P(=O)(O)O)P(=O)(O)O
inactive: [9] 0.131 | [10] 0.0188 | [11] 0.106 | [12] 0.113 | [13] 0.142 | [14] 0.0555 | [15] 0.03 | [16] 0.118 | [17] 0.0655 | [18] 0.0777 | [19] 0.0916 | [20] 0.151

COC(=O)N[C@H](C(=O)N[C@@H](Cc1ccccc1)[C@@H](O)CN(Cc1ccc(-c2ccccn2)cc1)NC(=O)[C@@H](NC(=O)OC)C(C)(C)C)C(C)(C)C
inactive: [9] -0.0462 | [10] 0.0593 | [11] -0.00424 | [12] 0.00689 | [13] 0.0398 | [14] 0.0145 | [15] 0.025 | [16] -0.0449 | [17] 0.0194 | [18] 0.0559 | [19] -0.0289 | [20] 0.0555

COC(=O)Nc1ccc(-c2nc(N3CCOCC3)c3cnn(C4CCN(C(=O)OC)CC4)c3n2)cc1
active: [15] -0.281 | [16] -0.237 | [17] -0.419 | [18] -0.244 | [19] -0.744 | [20] -0.369
inactive: [9] -0.0923 | [10] 0.0164 | [11] -0.0767 | [12] -0.0949 | [13] -0.134 | [14] -0.0918

O=C(O)CN(CC(=O)O)Cc1cc2c(cc1O)Oc1cc(O)c(CN(CC(=O)O)CC(=O)O)cc1C21OC(=O)c2ccccc21
inactive: [1] 0.133 | [2] 0.0463 | [3] 0.15 | [4] 0.0168

CC(=O)OC(CC(=O)[O-])C[N+](C)(C)C (stereo unspecified)
inactive: [1] 0.00442 | [2] 0.0665 | [3] 0.0316 | [4] -0.00031
